The other results are listed elsewhere or left out.
How the values were obtained:
HSkMC = human skeletal muscle cells; experiment: cytotoxicity call (relative viability < 0.9); settings: 10 µM
HepG2 = experiment: cytotoxicity call (relative viability < 0.9); settings: 10 µM
S. aureus RN4220 = experiment: growth inhibition call (relative growth <= 0.2); settings: 50 µM

Row | SMILES | cytotoxicity call (HSkMC) | cytotoxicity call (HepG2) | growth inhibition call (S. aureus RN4220)
1 | COc1cccc(NC(=O)N(C)C[C@H]2Oc3cc(C#CC4(O)CCCC4)ccc3S(=O)(=O)N([C@@H](C)CO)C[C@@H]2C)c1 | inactive | inactive | inactive
2 | COc1ccc(S(=O)(=O)N(C)C[C@@H]2OCCCC[C@@H](C)Oc3ccc(NC(=O)Nc4ccc(C(F)(F)F)cc4)cc3C(=O)N([C@@H](C)CO)C[C@H]2C)cc1 | inactive | inactive | inactive
3 | Cc1cc(N)n(-c2nc(=O)cc(C)[nH]2)n1 | inactive | inactive | inactive
4 | CCOc1ccc(NC2=NC(=O)/C(=C/c3cc(Br)c(OCc4ccccc4)c(OC)c3)S2)cc1 | inactive | inactive | inactive
5 | C=C1COC(=O)[C@@H]2[C@@H](CO)[C@@H](O)C[C@H]12 | inactive | inactive | inactive
6 | C[C@@H]1CN([C@H](C)CO)S(=O)(=O)c2ccc(C#Cc3ccc(F)cc3)cc2O[C@@H]1CN(C)CC1CC1 | inactive | inactive | inactive
7 | CC(C)NC(=O)N(C)C[C@H]1Oc2ccc(NC(=O)CCC(F)(F)F)cc2C(=O)N([C@@H](C)CO)C[C@@H]1C | inactive | inactive | inactive
8 | COc1ccc(S(=O)(=O)Nc2ccc3c(c2)C(=O)N([C@H](C)CO)C[C@H](C)[C@H](CN(C)S(=O)(=O)c2cn(C)cn2)O3)cc1 | inactive | inactive | inactive
9 | Cc1noc(C)c1NC(=O)N(C)C[C@H]1OCCCC[C@@H](C)Oc2ccc(NC(=O)Cc3ccccc3)cc2C(=O)N([C@H](C)CO)C[C@@H]1C | inactive | inactive | inactive
10 | C[C@H]1CN([C@@H](C)CO)C(=O)Cc2cc(NC(=O)NC3CCCCC3)ccc2O[C@H]1CN(C)Cc1ccc(C(F)(F)F)cc1 | inactive | active | inactive
11 | C[C@@H]1CN([C@H](C)CO)C(=O)c2cc(NC(=O)CCCN(C)C)ccc2O[C@H]1CN(C)C(=O)Nc1ccccc1 | inactive | inactive | inactive
12 | COc1ccc(cc1)NC(=O)N1C[C@]2(C1)CN([C@H](CO)c1[nH]c3cc(ccc3c12)OC)C(=O)CN1CCOCC1 | inactive | inactive | inactive
13 | CCNC(=O)C[C@@H]1C=C[C@@H](NC(=O)C2CCOCC2)[C@H](CO)O1 | inactive | inactive | inactive
14 | COc1ccc(NC(=O)N(C)C[C@H]2OCc3ccccc3-c3c(n(C)c4ccccc34)C(=O)N([C@@H](C)CO)C[C@@H]2C)c(OC)c1 | inactive | inactive | inactive
15 | Cc1noc(C)c1NC(=O)Nc1cccc2c1O[C@H](CN(C)S(=O)(=O)c1ccccc1)[C@H](C)CN([C@@H](C)CO)C2=O | inactive | inactive | inactive
16 | CC(=O)OCC=C(C)C=CC=C(C)C=CC1=C(C)CCCC1(C)C | inactive | inactive | inactive
17 | C[C@H]1CN([C@@H](C)CO)C(=O)Cc2cc(NC(=O)Cc3cn(C)c4ccccc34)ccc2O[C@H]1CN(C)Cc1ccc(Oc2ccccc2)cc1 | active | active | inactive
18 | Cc1noc(C)c1S(=O)(=O)N(C)C[C@H]1Oc2ccc(NC(=O)NC(C)C)cc2CC(=O)N([C@H](C)CO)C[C@H]1C | inactive | inactive | inactive
19 | O=c1c(O[C@@H]2O[C@H](CO)[C@@H](O)[C@H](O)[C@@H]2O[C@H]2OC[C@](O)(CO)[C@H]2O)c(-c2ccc(O)c(O)c2)oc2cc(O)cc(O)c12 | inactive | inactive | inactive
20 | COC(=O)[C@@H]1C[C@@H](C#N)N[C@@H]1c1ccccn1 | inactive | inactive | inactive

Row | SMILES | cytotoxicity call (HSkMC) | cytotoxicity call (HepG2) | growth inhibition call (S. aureus RN4220)
21 | C[C@H]1CCCCO[C@H](CN(C)S(=O)(=O)c2ccc(F)cc2)[C@@H](C)CN([C@@H](C)CO)C(=O)c2cc(NC(=O)c3ccccc3)ccc2O1 | inactive | active | inactive
22 | CC(C)(C)OC(=O)CC[C@]1(C(=O)NCc2ccccc2)N=C(c2ccc(OCCCO)cc2)O[C@H]1c1ccccc1 | inactive | active | inactive
23 | C[C@@H]1CN([C@H](C)CO)C(=O)c2cc(NS(=O)(=O)c3cccs3)ccc2O[C@H]1CN(C)Cc1ccc(-c2ccccc2)cc1 | inactive | inactive | inactive
24 | CC(O)C1C(=O)N2C(C(=O)O)=C(SC3CNC(C(=O)N(C)C)C3)C(C)C12 (configuration not stated) | inactive | inactive | active
25 | C[C@H](CO)N1C[C@H](C)[C@H](CN(C)Cc2ccc(Cl)c(Cl)c2)OCCCC[C@H](C)Oc2ccc(NC(=O)c3ccccc3)cc2C1=O | inactive | inactive | inactive
26 | CO[C@H]1CN(C)C(=O)c2cc(NC(=O)C3CCOCC3)ccc2OC[C@H](C)N(Cc2cccnc2)C[C@H]1C | inactive | inactive | inactive
27 | CO[C@@H]1[C@H](N(C)C(=O)c2ccccc2)C[C@H]2O[C@]1(C)n1c3ccccc3c3c4c(c5c6ccccc6n2c5c31)C(=O)NC4 | inactive | active | inactive
28 | CC(C)(N)C(=O)N[C@H](COCc1ccccc1)C(=O)N1CCC2(CC1)CN(S(C)(=O)=O)c1ccccc12 | active | inactive | inactive
29 | C[C@@H]1CN([C@H](C)CO)C(=O)c2cc(NS(C)(=O)=O)ccc2O[C@@H](C)CCCCO[C@@H]1CN(C)C(=O)CCCN(C)C | inactive | inactive | inactive
30 | C[C@H](CO)N1C[C@H](C)[C@@H](CN(C)C(=O)Nc2ccc3c(c2)OCO3)Oc2ncc(C#CC3(O)CCCC3)cc2C1=O | inactive | inactive | inactive
31 | O=C(N[C@@H]1CC[C@H](CCNS(=O)(=O)c2ccccc2)O[C@H]1CO)c1cnccn1 | inactive | inactive | inactive
32 | COc1ccc(NC(=O)N(C)C[C@@H]2OCCCC[C@@H](C)Oc3ccc(NS(=O)(=O)c4ccc(F)cc4)cc3C(=O)N([C@@H](C)CO)C[C@H]2C)cc1 | inactive | inactive | inactive
33 | COc1cccc(S(=O)(=O)N(C)C[C@@H]2Oc3cc(Br)ccc3S(=O)(=O)N([C@@H](C)CO)C[C@@H]2C)c1 | inactive | inactive | inactive
34 | O=C(C[C@H]1C[C@H]2c3cc(NC(=O)C4CCOCC4)ccc3O[C@H]2[C@H](CO)O1)NCc1cc(F)ccc1F | inactive | inactive | inactive
35 | C[C@H](CO)N1C[C@H](C)[C@H](CN(C)S(=O)(=O)c2cn(C)cn2)OCCCC[C@H](C)Oc2ccc(N(C)C)cc2C1=O | inactive | inactive | inactive
36 | COC(=O)C1=CO[C@@H](O[C@H]2O[C@@H](CO)[C@@H](O)[C@@H](O)[C@@H]2O)[C@@H]2C(CO)=C[C@H](O)[C@H]12 | inactive | inactive | inactive
37 | C[C@@H]1CN([C@@H](C)CO)C(=O)c2cc(NS(=O)(=O)c3ccccc3)ccc2O[C@@H]1CN(C)CC1CC1 | inactive | inactive | inactive
38 | C[C@H](CO)N1C[C@H](C)[C@@H](CN(C)Cc2ccc(Cl)c(Cl)c2)OCCCC[C@H](C)Oc2ccc(NC(=O)Nc3cccc4ccccc34)cc2C1=O | inactive | inactive | inactive
39 | CO[C@H]1CN(C)C(=O)c2cc(NC(=O)CC(F)(F)F)ccc2OC[C@@H](C)N(C(=O)C2CCOCC2)C[C@H]1C | inactive | inactive | inactive
